Measurements as given in the supplement of paper PMC3334620.
Whole data set: some 33,000 sequences, median “E-score (-0.5 to 0.5)” near -0.035, cut for the highest 2% near 0.35. The list shows a part of the results.

Biological target: T1, Pdr3 (UniProt P33200)
T1 sequence: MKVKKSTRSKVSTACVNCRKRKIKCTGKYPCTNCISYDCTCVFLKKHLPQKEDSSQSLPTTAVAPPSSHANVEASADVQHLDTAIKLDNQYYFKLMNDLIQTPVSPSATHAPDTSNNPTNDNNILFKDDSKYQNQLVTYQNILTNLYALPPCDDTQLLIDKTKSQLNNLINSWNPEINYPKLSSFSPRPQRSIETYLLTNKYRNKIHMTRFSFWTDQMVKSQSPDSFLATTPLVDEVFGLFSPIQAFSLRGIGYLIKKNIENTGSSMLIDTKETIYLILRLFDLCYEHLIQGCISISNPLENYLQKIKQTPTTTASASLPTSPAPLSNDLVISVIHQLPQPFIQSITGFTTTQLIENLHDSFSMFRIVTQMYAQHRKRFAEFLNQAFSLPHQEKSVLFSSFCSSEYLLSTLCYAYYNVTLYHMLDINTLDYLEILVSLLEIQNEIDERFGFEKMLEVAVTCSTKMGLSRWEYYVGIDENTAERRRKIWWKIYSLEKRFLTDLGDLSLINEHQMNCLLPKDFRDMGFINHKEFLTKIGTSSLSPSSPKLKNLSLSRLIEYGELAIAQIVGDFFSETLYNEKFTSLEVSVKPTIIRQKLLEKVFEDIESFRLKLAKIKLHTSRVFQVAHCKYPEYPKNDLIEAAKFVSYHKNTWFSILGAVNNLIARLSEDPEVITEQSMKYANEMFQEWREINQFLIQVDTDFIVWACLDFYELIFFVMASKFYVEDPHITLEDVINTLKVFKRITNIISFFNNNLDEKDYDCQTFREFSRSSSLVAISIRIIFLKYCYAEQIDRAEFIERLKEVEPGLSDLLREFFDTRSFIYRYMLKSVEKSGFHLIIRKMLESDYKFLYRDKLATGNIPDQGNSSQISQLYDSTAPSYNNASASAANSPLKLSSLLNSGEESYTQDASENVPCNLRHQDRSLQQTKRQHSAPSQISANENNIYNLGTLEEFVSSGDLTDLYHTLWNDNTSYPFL
Assay: PBM E-score (8-mer binding enrichment) (E-score (-0.5 to 0.5)); higher = stronger / more preferred TF binding; most listed sequences are background and not binding sites
Details: protein concentration: 200 nM; construct: GST-full length
Method in brief: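 Universal all-10-mer Agilent arrays, fresh or stripped once, were converted to double-stranded form by primer extension. GST-tagged yeast transcription factors from PURExpress in vitro transcription/translation, full-length or DNA-binding domain only, were applied at about 100-200 nM and detected with fluorescent anti-GST. After masliner normalisation, the Universal PBM Analysis Suite scored each ungapped eight-base word together with its reverse complement by E-score.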

Sequence | PBM E-score
AGACAAGG | -0.16
GAGCTTGA | -0.0385
CGGAACCC | 0.477
AGAGAAGG | -0.0862
ATTGAATC | -0.106
ATTTCACG | 0.0732
AGACTAAG | -0.174
ACTTATCC | 0.177
AGTTGAGG | 0.0177
GCCTGGAC | -0.0556
AAGGTTTC | -0.00441
ACCTGCTA | -0.188
CATTTGTC | -0.0826
GTAGAGGA | -0.139
GCCAGAGA | -0.0394
CATGAGGG | -0.0553
ACCCTCGG | 0.156
CATACTGA | -0.136
GACATACA | 0.211
ACTAACTG | -0.106
CCATAACG | -0.0278
GAGCCTGA | -0.178
GGAAAATA | 0.299
AACGTCTA | -0.139
GAAGGTTA | -0.062

Sequence | PBM E-score
CCCTTGAG | -0.135
GCCACTGA | -0.015
ATAACTTC | 0.0689
AAGGAGGA | -0.184
AAATTCTC | 0.0766
GCATGGGA | -0.0349
CGACCTGA | -0.129
GATCCCAA | 0.0388
CCTATTGC | -0.18
AAATACCT | 0.0069
AACGCCGT | 0.00403
AATCAGCG | 0.213
ACACTGGA | -0.0404
GCTGTATA | -0.296
ATCACACG | -0.0253
ATTCTGAA | -0.0569
CGGTTTGA | 0.0259
CACCGCGC | 0.166
AAGTTTAG | -0.175
AGGGTTTG | -0.00234
AAGACTGC | -0.254
ACACAGCA | -0.00473
TAAATAGA | -0.179
AGCGACTG | -0.227
CAGGAGCA | -0.0699

Sequence | PBM E-score
GCGGCCGA | 0.222
CATCGTCC | 0.0726
CGTGGTGC | -0.0695
ATTGGTGA | -0.193
GGATGAGA | -0.0152
GAGTTCAA | -0.113
CCACATGC | -0.0304
ATTACACA | -0.0105
AGGCGATC | -0.177
AAGATCCC | 0.013
ACCGCGAT | 0.177
AGGAATCG | 0.116
CCGAGCGG | 0.274
AGCCTCAG | -0.0761
GTCATTTA | -0.254
CATGGTGC | -0.157
ACTTAGGG | -0.0922
CGGTTTGC | 0.124
AAAGATTG | -0.177
CTGAATCC | 0.0967
GGGCGGCA | 0.193
AGTGTACC | -0.188
CCGATGAA | 0.178
TAGCCCGA | 0.00326
GCCGGCGC | 0.372

Sequence | PBM E-score
CTGGTTCC | 0.264
CTTTTTTC | 0.00094
AGTGCGCA | 0.177
CAGGAGCC | -0.121
ACTACGAT | -0.0892
ATGCGCCG | 0.262
AGGTTGGC | -0.0851
GTGGCACA | -0.194
ATTAAAAC | -0.0309
GCGCCAAC | 0.0994
CGCGGGAG | 0.279
TCTTCTCA | 0.111
ACCAGAGT | -0.273
AGAGTCCT | -0.133
GATCCTGC | -0.00469
CCCGAAGC | 0.175
TACTGCCA | -0.0397
CACTTATG | 0.0429
GACCCAGA | 0.0239
CAATTCCG | 0.435
GACAGACC | -0.116
AACAGACA | 0.157
AGATGCAA | -0.194
AACAGCAG | 0.0785
ACACCTTA | -0.104

Sequence | PBM E-score
ATGCGCTC | -0.0721
TGATTCCA | -0.054
ACATAAGA | -0.0601
ATTGTCGA | 0.0994
AATGCAGG | 0.00441
CACATGTC | 0.00635
ATCACGAC | -0.105
AACAATAG | -0.174
CTGATCAG | 0.0843
CGTATCAA | -0.0785
GCACTTGA | -0.138
AGATTCTC | 0.00017
AACTGAAA | -0.119
CCCAAGAC | -0.147
CTCTCGCA | -0.212
CATCTTCA | -0.217
CAGAGATG | -0.184
CCTGACTC | -0.115
AGACCTTC | -0.102
GCCCATCA | -0.109
TCAATTGA | 0.139
CCAGCGCG | 0.105
CATCGGTC | 0.0314
GCAAGAAC | -0.0844
GCGCCCGC | 0.0841

Sequence | PBM E-score
GCGATCCC | 0.135
ACTGAGAT | -0.221
AACTAAAG | -0.189
AGGGAACA | -0.0421
TACGCATA | -0.126
CTTGTCGC | 0.118
TATCGAAA | 0.0199
CAGGATTA | -0.0573
GTATCAAC | 0.15
CGAGCACC | 0.0866
ACGACGAT | 0.119
AAATATGG | -0.00786
CTTGGGCC | -0.0633
ATCAAGGG | 0.0172
GCTCGCAC | 0.0918
AAGTCAAA | -0.0991
TGAGGACA | -0.184
AAGCACGG | 0.104
AAACATTA | -0.0733
CCCACAGG | -0.137
CCGCTTAG | 0.138
CGGCCGGA | 0.396
TCTAACCA | -0.174
CCTACAGC | -0.0513
GAGCTCGA | 0.0764

Sequence | PBM E-score
ATGCCCTC | -0.0557
CTACAGAA | -0.154
CCTTTGTC | -0.167
ATCATCGC | -0.0145
CAGAAATA | -0.00397
AACGGCAC | -0.0354
CTCCGAAG | 0.311
AATTTTTG | -0.28
AATCGTGG | -0.0183
CCCTCACG | -0.134
GCATGCCC | 0.166
GGGTTGAC | 0.0502
AAAAGGAG | -0.133
AGACGACG | 0.0264
ATCCAGTA | -0.0836
CCCTTGTA | -0.196
TAGGCACA | -0.224
GTGATTTA | 0.163
TCCGGGAA | 0.386
CAGAGATC | -0.0206
AGTACTAA | -0.085
AAGTTCCT | 0.0364
